Test results published in patent publication US10299477B2 (priority 2015, dated 2019).

Key:
Type in all cases: in vivo
Botrytis cinerea = test: Test Example B: Gray mold on tomato; details: Gray mold on tomato
Description: [Test Example B] Gray Mold on Tomato
Seeds of a test plant (tomato variety: Oogata Fukuju) were planted followed by cultivating until three to five first leaves (true leaves) appeared.

Alternaia brassicicola = test: Test Example C: Alternaria sooty spot on cabbage; details: Alternaria sooty spot on cabbage
Description: [Test Example C] Alternaria Sooty Spot on Cabbage
Seeds of a test plant (cabbage variety: Shikidori) were planted followed by cultivating until the cotyledons extended.

[1] = tested on: Blumeria graminis f sp. hordei; test: Test Example D: Powdery mildew on barley; details: Powdery mildew on barley
Description: [Test Example D] Powdery Mildew on Barley
After the sprayed dilutions were dried, conidia of Blumeria graminis f sp. hordei were inoculated to the plants by shaking off.

Puccinia recondita = test: Test Example E: Brown rust on wheat; details: Brown rust on wheat
Description: [Test Example E] Brown Rust on Wheat

Plasmopara viticola = test: Test Example G: Downy mildew on vine; details: Downy mildew on vine; 250 ppm sprayed before inoculation; 7-10 days after inoculation
Description: [Test Example G] Downy Mildew on Vine
Seeds of a test plant (grape variety: Neomuscat) were planted followed by cultivating until three to four first leaves appeared. […] After the sprayed dilutions were dried, a zoosporangia suspension (1-2×10^4 zoosporangia/ml) of Plasmopara viticola was inoculated to the plants by spraying.

SMILES | Test B control value (Botrytis cinerea) | Test C control value (Alternaia brassicicola) | Test D control value [1] | Test E control value (Puccinia recondita) | Test G control value (Plasmopara viticola)
CCn1c(-c2c(F)cccc2F)c(-c2cc(OCOC)ccc2Cl)ccc1=O [Compound 97, 5-(2-chloro-5-(methoxymethoxy)phenyl)-6-(2,6-difluorophenyl)-1-ethylpyridine-2(1H)-one] | H (H shows more than 50% of control values) | H (H shows more than 50% of control values) | H (H shows more than 50% of control values) | H (H shows more than 50% of control values) | H (H shows more than 50% of control values)
CCn1c(-c2c(F)cccc2F)c(-c2cc(OCC#N)ccc2Cl)ccc1=O [Compound 98] | H (H shows more than 50% of control values) | H (H shows more than 50% of control values) | H (H shows more than 50% of control values) | H (H shows more than 50% of control values) | H (H shows more than 50% of control values)
CCOc1ccc(Cl)c(-c2ccc(=O)n(CC)c2-c2c(F)cccc2F)c1 [Compound 99] | H (H shows more than 50% of control values) | H (H shows more than 50% of control values) | H (H shows more than 50% of control values) | H (H shows more than 50% of control values) | H (H shows more than 50% of control values)
CCOc1cccc(-c2ccc(=O)n(CC)c2-c2c(F)cccc2F)c1 [Compound 103] | H (H shows more than 50% of control values) | H (H shows more than 50% of control values) | H (H shows more than 50% of control values) | H (H shows more than 50% of control values) | H (H shows more than 50% of control values)
CCn1c(-c2c(F)cccc2F)c(-c2cc(OCOC)ccc2Cl)cc(Br)c1=O [Compound 126] | H (H shows more than 50% of control values) | H (H shows more than 50% of control values) | H (H shows more than 50% of control values) | H (H shows more than 50% of control values) | H (H shows more than 50% of control values)
CCn1c(-c2c(F)cccc2F)c(-c2cc(OCOC)ccc2Cl)cc(Cl)c1=O [Compound 127, 3-chloro-5-(2-chloro-5-(methoxymethoxy)phenyl)-6-(2,6-difluorophenyl)-1-ethylpyridine-2(1H)-one] | H (H shows more than 50% of control values) | H (H shows more than 50% of control values) | H (H shows more than 50% of control values) | H (H shows more than 50% of control values) | H (H shows more than 50% of control values)
CCn1c(-c2c(F)cccc2F)c(-c2cc(OCC#N)ccc2Cl)cc(Br)c1=O [Compound 128] | H (H shows more than 50% of control values) | H (H shows more than 50% of control values) | H (H shows more than 50% of control values) | H (H shows more than 50% of control values) | H (H shows more than 50% of control values)
COc1cc(OC)c(Cl)c(-c2ccc(=O)n(C)c2-c2c(F)cc(F)cc2F)c1 [Compound 136, 5-(2-chloro-3,5-dimethoxyphenyl)-1-methyl-6-(2,4,6-trifluorophenyl)pyridine-2(1H)-one] | H (H shows more than 50% of control values) | H (H shows more than 50% of control values) | H (H shows more than 50% of control values) | H (H shows more than 50% of control values) | H (H shows more than 50% of control values)
Cn1c(-c2c(F)cccc2F)c(-c2ccccc2F)ccc1=O [Compound 143] | H (H shows more than 50% of control values) | H (H shows more than 50% of control values) | H (H shows more than 50% of control values) | H (H shows more than 50% of control values) | H (H shows more than 50% of control values)
Cn1c(-c2c(F)cccc2F)c(-c2ccccc2F)cc(Br)c1=O [Compound 145] | H (H shows more than 50% of control values) | H (H shows more than 50% of control values) | H (H shows more than 50% of control values) | H (H shows more than 50% of control values) | H (H shows more than 50% of control values)
CCn1c(-c2c(F)cccc2F)c(-c2ccccc2C(F)(F)F)cc(Cl)c1=O [Compound 147] | L (L shows 50% or less of control values) | L (L shows 50% or less of control values) | L (L shows 50% or less of control values) | H (H shows more than 50% of control values) | L (L shows 50% or less of control values)
CCn1c(-c2c(F)cccc2F)c(-c2ccccc2C(F)(F)F)cc(Br)c1=O [Compound 148] | L (L shows 50% or less of control values) | L (L shows 50% or less of control values) | L (L shows 50% or less of control values) | L (L shows 50% or less of control values) | L (L shows 50% or less of control values)
CCN1C(=O)CCC(c2cc(OC)cc(OC)c2)=C1c1c(F)cccc1Cl [Compound 149] | H (H shows more than 50% of control values) | H (H shows more than 50% of control values) | H (H shows more than 50% of control values) | H (H shows more than 50% of control values) | H (H shows more than 50% of control values)
CCn1c(-c2c(F)cccc2Cl)c(-c2cc(OC)cc(OC)c2)ccc1=O [Compound 150] | H (H shows more than 50% of control values) | L (L shows 50% or less of control values) | L (L shows 50% or less of control values) | H (H shows more than 50% of control values) | L (L shows 50% or less of control values)
CCn1c(-c2c(F)cccc2Cl)c(-c2cc(OC)cc(OC)c2Br)ccc1=O [Compound 151] | H (H shows more than 50% of control values) | H (H shows more than 50% of control values) | H (H shows more than 50% of control values) | H (H shows more than 50% of control values) | H (H shows more than 50% of control values)
CCn1c(-c2c(F)cccc2Cl)c(-c2cc(OC)cc(OC)c2Cl)ccc1=O [Compound 152] | H (H shows more than 50% of control values) | H (H shows more than 50% of control values) | H (H shows more than 50% of control values) | H (H shows more than 50% of control values) | H (H shows more than 50% of control values)
CCn1c(-c2c(F)cccc2F)c(-c2cccc(F)c2)cc(Cl)c1=O [Compound 154] | H (H shows more than 50% of control values) | H (H shows more than 50% of control values) | H (H shows more than 50% of control values) | H (H shows more than 50% of control values) | L (L shows 50% or less of control values)
CCn1c(-c2c(F)cccc2F)c(-c2cccc(F)c2)cc(Br)c1=O [Compound 155] | H (H shows more than 50% of control values) | H (H shows more than 50% of control values) | H (H shows more than 50% of control values) | H (H shows more than 50% of control values) | L (L shows 50% or less of control values)
CCN1C(=O)CCC(c2cccc(F)c2)=C1c1c(F)cccc1F [Compound 156] | H (H shows more than 50% of control values) | H (H shows more than 50% of control values) | H (H shows more than 50% of control values) | H (H shows more than 50% of control values) | H (H shows more than 50% of control values)
Cn1c(-c2c(F)cccc2F)c(-c2ccccc2C(F)(F)F)ccc1=O [Compound 157] | H (H shows more than 50% of control values) | H (H shows more than 50% of control values) | H (H shows more than 50% of control values) | H (H shows more than 50% of control values) | H (H shows more than 50% of control values)
Cn1c(-c2c(F)cccc2F)c(-c2ccccc2C(F)(F)F)cc(Br)c1=O [Compound 159] | L (L shows 50% or less of control values) | L (L shows 50% or less of control values) | L (L shows 50% or less of control values) | H (H shows more than 50% of control values) | L (L shows 50% or less of control values)
